Measured values as given in the supplement of paper PMC12355420.
Counter-ions that a name gives are not always drawn. This is one part of the list. Many values rest on one well or one pass, so single values are uncertain.

Test system: HeLa VPS33A reporter cells
Assay: relative cell viability (CellMask signal) vs DMSO (fraction of DMSO); HeLa model of a glycosaminoglycan (GAG) storage disease; KI is knock-in and KO knock-out; SDC1 is syndecan 1; higher = less cytotoxic
Conditions: 50 µM; 24 h
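Further: primary screen of an FDA-approved drug library in HeLa reporter cells in 96-well format, CellMask signal normalized to DMSO-treated wells set as 1, under 0.5 deemed highly cytotoxic.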

Row | Compound | relative cell viability
1 | C#CCN(C)CCCOc1ccc(Cl)cc1Cl [Clorgyline (hydrochloride)] | 0.00627
2 | CN(C)[C@@H](CCOc1cccc2ccccc12)c1ccccc1 [Dapoxetine HCl] | 0.00507
3 | CN(C)CCN1C(=O)c2cccc3cc(N)cc(c23)C1=O [Amonafide] | 0.0111
4 | CN(C)CC/C=C1/c2ccccc2Sc2ccc(Cl)cc21 [Chlorprothixene (hydrochloride)] | 0.00507
5 | Clc1ccc(COC(Cn2ccnc2)c2ccc(Cl)cc2Cl)c(Cl)c1 (centres undefined) [Miconazole Nitrate] | 0.00457
6 | Cc1cc(Nc2ncc(Cl)c(Nc3ccccc3S(=O)(=O)C(C)C)n2)c(OC(C)C)cc1C1CCNCC1 | 0.00483
7 | COc1cc2ncnc(Nc3ccc(F)c(Cl)c3)c2cc1OCCCN1CCOCC1 [Gefitinib hydrochloride] | 0.00808
8 | C=CC(=O)N1CCC(Oc2cc3c(Nc4ccc(Cl)c(Cl)c4F)ncnc3cc2OC)CC1 [Poziotinib] | 0.00934
9 | CN1CCN(c2ccc(C(=O)Nc3n[nH]c4ccc(Cc5cc(F)cc(F)c5)cc34)c(NC3CCOCC3)c2)CC1 [Entrectinib] | 0.0124
10 | C#C[C@]1(O)CC[C@H]2[C@@H]3CCC4=CCCC[C@@H]4[C@H]3C(=C)C[C@@]21CC [Desogestrel] | 0.00563
11 | CC(=O)O[C@@]12CO[C@@H]1C[C@H](O)[C@@]1(C)C(=O)[C@H](O)C3=C(C)[C@@H](OC(=O)[C@H](O)[C@@H](NC(=O)OC(C)(C)C)c4ccccc4)C[C@@](O)([C@@H](OC(=O)c4ccccc4)[C@H]21)C3(C)C [Docetaxel] | 0.12
12 | COc1cc2c(cc1O)CC[C@@H]1[C@@H]2CC[C@]2(C)[C@@H](O)CC[C@@H]12 [2-Methoxyestradiol (2-MeOE2)] | 0.324
13 | CC[C@H](NC(=O)[C@H](C)NC)C(=O)N1C[C@@H](O)C[C@H]1Cc1c(-c2[nH]c3cc(F)ccc3c2C[C@@H]2C[C@H](O)CN2C(=O)[C@H](CC)NC(=O)[C@H](C)NC)[nH]c2cc(F)ccc12 | 0.24
14 | CCC1C=C(C)CC(C)CC(OC)C2OC(O)(C(=O)C(=O)N3CCCCC3C(=O)OC(C(C)=CC3CCC(O)C(OC)C3)C(C)C(O)CC1=O)C(C)CC2OC (centres undefined) [Ascomycin(FK 520)] | 0.00688
15 | C=CCc1ccc(O)c(-c2cc(CC=C)ccc2O)c1 [Magnolol] | 0.00494
16 | N#Cc1cc(-c2n[nH]c(-c3ccncc3)n2)ccn1 [Topiroxostat] | 0.00463
17 | COC(=O)C1=C(C)NC(C)=C(C(=O)OCC(C)C)C1c1ccccc1[N+](=O)[O-] (centres undefined) [Nisoldipine] | 0.186
18 | CC(CN1c2ccccc2Sc2ccccc21)N(C)C (centres undefined) [Promethazine HCl] | 0.464
19 | Nc1ccc2cc3ccc(N)cc3nc2c1 [Proflavine Hemisulfate] | 0.0151
20 | N#CC[C@H](C1CCCC1)n1cc(-c2ncnc3[nH]ccc23)cn1 [Ruxolitinib phosphate] | 0.0143
21 | CC(C)N1CCN(c2ccc(OCC3COC(Cn4cncn4)(c4ccc(Cl)cc4Cl)O3)cc2)CC1 (centres undefined) [Terconazole] | 0.00898
22 | CC[C@]1(O)C[C@@H]2CN(CCc3c([nH]c4ccccc34)[C@@](C(=O)OC)(c3cc4c(cc3OC)N(C)[C@H]3[C@@](O)(C(=O)OC)[C@H](OC(C)=O)[C@]5(CC)C=CCN6CC[C@]43[C@@H]65)C2)C1 [Vinblastine sulfate] | 0.0065
23 | COC(=O)[C@]12CCC(C)(C)C[C@H]1[C@H]1C(=O)C=C3[C@@]4(C)C=C(C#N)C(=O)C(C)(C)[C@@H]4CC[C@@]3(C)[C@]1(C)CC2 [Bardoxolone methyl] | 0.00411
24 | CCS(=O)(=O)N1CC(CC#N)(n2cc(-c3ncnc4[nH]ccc34)cn2)C1 [Baricitinib phosphate] | 0.178
25 | C[n+]1cc2c3c(ccc2c2ccc4cc5c(cc4c21)OCO5)OCO3 [Sanguinarine] | 0.00728
26 | CC(C)OC(=O)CCC/C=C\C[C@@H]1[C@@H](CC[C@@H](O)CCc2ccccc2)[C@H](O)C[C@@H]1O [Latanoprost] | 0.00421
27 | O=C(/C=C\n1cnc(-c2cc(C(F)(F)F)cc(C(F)(F)F)c2)n1)NNc1cnccn1 | 0.036
28 | Oc1c(Br)cc(Br)c2cccnc12 [Broxyquinoline] | 0.375
29 | CC1(C)CCC(CN2CCN(c3ccc(C(=O)NS(=O)(=O)c4ccc(NCC5CCOCC5)c([N+](=O)[O-])c4)c(Oc4cnc5[nH]ccc5c4)c3)CC2)=C(c2ccc(Cl)cc2)C1 | 0.0223
